Source: publication PMC4336329 (PLoS ONE, 2015)
About 2,200 (0.71%) of roughly 310,000 compounds showed an effect of 50% or more. Effects have a minus sign here. The list shows a part of the results.

Target: human ether-à-go-go-related gene (hERG) potassium channel (human, UniProt Q12809)
Test: primary screen, population patch clamp on CHO cells stably expressing hERG

human ether-à-go-go-related gene (hERG) potassium channel, sequence (Q12809 whole entry, looked up): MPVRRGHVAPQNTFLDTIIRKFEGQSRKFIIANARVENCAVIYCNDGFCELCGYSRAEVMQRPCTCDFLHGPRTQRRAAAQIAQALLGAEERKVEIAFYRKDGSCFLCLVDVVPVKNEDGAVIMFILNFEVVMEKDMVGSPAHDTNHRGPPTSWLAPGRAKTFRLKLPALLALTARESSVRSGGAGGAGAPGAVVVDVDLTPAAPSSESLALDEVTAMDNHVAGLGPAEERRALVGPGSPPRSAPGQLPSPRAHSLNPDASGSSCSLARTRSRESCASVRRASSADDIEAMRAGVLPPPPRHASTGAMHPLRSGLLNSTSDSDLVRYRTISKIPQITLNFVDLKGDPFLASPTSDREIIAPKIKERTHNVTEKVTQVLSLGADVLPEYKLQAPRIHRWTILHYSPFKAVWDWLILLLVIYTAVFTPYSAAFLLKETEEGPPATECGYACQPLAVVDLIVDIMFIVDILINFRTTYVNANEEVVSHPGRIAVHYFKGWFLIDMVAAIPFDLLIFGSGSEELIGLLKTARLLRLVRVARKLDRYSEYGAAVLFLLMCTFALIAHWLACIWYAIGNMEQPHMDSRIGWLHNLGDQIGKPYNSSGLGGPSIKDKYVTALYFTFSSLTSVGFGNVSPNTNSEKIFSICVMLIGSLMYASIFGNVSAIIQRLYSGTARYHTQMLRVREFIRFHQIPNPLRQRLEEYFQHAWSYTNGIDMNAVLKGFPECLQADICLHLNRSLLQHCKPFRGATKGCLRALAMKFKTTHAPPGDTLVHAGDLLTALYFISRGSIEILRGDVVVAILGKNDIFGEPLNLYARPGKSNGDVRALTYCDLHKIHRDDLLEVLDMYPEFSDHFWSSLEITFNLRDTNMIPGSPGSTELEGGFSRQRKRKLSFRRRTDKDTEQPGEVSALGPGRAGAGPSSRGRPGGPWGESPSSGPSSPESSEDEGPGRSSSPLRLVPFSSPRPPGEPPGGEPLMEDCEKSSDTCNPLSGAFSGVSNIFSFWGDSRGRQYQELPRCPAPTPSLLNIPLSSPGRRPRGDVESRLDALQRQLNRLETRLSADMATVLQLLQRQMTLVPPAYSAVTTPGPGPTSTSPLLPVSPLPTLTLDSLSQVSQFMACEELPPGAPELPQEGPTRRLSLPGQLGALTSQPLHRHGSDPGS

SMILES | hERG current change (%, negative = inhibition) at 1uM
c1ccc(SSc2ccccc2)cc1 | 15.3%
Cc1cc(NC(=O)Nc2cccc(Cl)c2)n(-c2ccccn2)n1 | 13.5%
Cc1ccc2oc(C(=O)NCc3ncc(C)[nH]3)c(C)c2c1 | 9.29%
O=C(c1ccc(-c2ccccc2)c(F)c1)C1CCCN(C(=O)c2cncs2)C1 (stereo not shown) | 2.85%
O=C(CNC(=S)N(CCCN1CCOCC1)Cc1cccs1)N1CCCCCC1 | -6.64%
CN1CCN(C2=Cc3cc(Cl)ccc3Sc3cc(F)ccc32)CC1.CS(=O)(=O)O | 11.3%
COc1ccc(S(=O)(=O)N2CCCC(C(=O)NC3CCCCC3)C2)cc1 (stereo not shown) | 10.8%
Cc1cc(C(=O)NNc2ccccc2F)no1 | 19.1%
O=C(CN1C(=O)C2CC=CCC2C1=O)NCC(=O)Nc1ccc(F)c(F)c1 (stereo not shown) | 12.9%
O=C(NCCOc1ccccc1)C(=O)NCC1CCCO1 (stereo not shown) | -0.956%
Cc1nn(-c2ccccc2)c(C)c1/C=C/C(=O)OCC(=O)Nc1ncc(Cl)cc1Cl | 12.2%
CCOC(=O)C(Cc1ccccc1)NS(=O)(=O)c1ccc(NC(C)=O)cc1 (stereo not shown) | 23.9%
COc1ccc(C)cc1NC(=O)c1cc(S(=O)(=O)N2CCOCC2)cn1C | 9.92%
Cc1ccc2nc(NCc3ccccc3)[nH]c2c1 | 7.11%
COCCn1nnnc1CN1CCN2CCCC2C1.Cl (stereo not shown) | 9.2%
COCCn1c(=NC(=O)/C=C/c2ccccc2)sc2cc(NC(C)=O)ccc21 | -6.98%
Cc1nnc2n(-c3ccccc3)c(=O)c3c4c(sc3n12)CCCC4 | 6.27%
COc1ccc2[nH]c(C(=O)NCCCN3CCCC3=O)c(C)c2c1 | 3.5%
COCCOc1cc(NC(=O)CS(=O)CC(=O)N(C)C)c(Cl)cc1Cl (stereo not shown) | 10.8%
Cc1ccc(-n2nnnc2SCC(=O)c2c(N)n(C3CC3)c(=O)[nH]c2=O)c(C)c1 | -1.2%

SMILES | hERG current change (%, negative = inhibition) at 1uM
COc1ccc(CNC(=O)C(C)Sc2nc3ccccc3c(=O)n2CCCN2CCOCC2)cc1 (stereo not shown) | -95%
Nc1nc(NCC2CCCO2)nc(Nc2cccc(Cl)c2)c1[N+](=O)[O-] (stereo not shown) | 6.56%
COc1ccc(C(CNC(=O)c2oc3ccccc3c2C)N2CCCC2)cc1 (stereo not shown) | 2.18%
COc1ccc(N2CCN(C(=O)COc3ccc4c(C)cc(=O)oc4c3C)CC2)cc1 | 26.2%
COCCn1c(SCC(=O)NC2CC2)nc2ccccc21 | 11.9%
CC(NC(=O)Cn1cc([N+](=O)[O-])cn1)c1ccc(C(C)(C)C)cc1 (stereo not shown) | 4.57%
COc1cccc(NCc2cc3c(C(C)(C)C)nn(-c4ccccc4)c3[nH]c2=O)c1 | 14.2%
Cc1ccc2c(c1)c1c(n2CC(O)Cn2nc(C)c(Br)c2C)C(=O)CCC1 (stereo not shown) | 9.76%
COc1ccc(C(=O)O/N=C(\N)c2ccccc2Cl)cc1OC | -0.118%
COc1ccc(/C=C(\C#N)C(=O)OCC(=O)N(C)C2CCS(=O)(=O)C2)cc1 (stereo not shown) | -5.18%
COc1ccc(OC)c(S(=O)(=O)NCC(c2cccs2)N2CCc3ccccc3C2)c1 (stereo not shown) | 0.694%
CCN(CC)CCCNc1ncnc2ccccc12.Cl | 5.89%
COc1ccccc1N1CCN(C(=O)CN(C2CCCCC2)S(C)(=O)=O)CC1 | 4.65%
O=C(O)CCCN1C(=O)/C(=C\c2ccccc2OCc2ccccc2)SC1=S | 11.6%
CCOc1ccc(NC(=O)Nc2ccc(Cc3ccncc3)cc2)cc1 | 15.9%
O=C(ON=C1CCSCC1)c1ccccc1 | 1.48%
COc1ccc(OC)c(C2=NS(=O)(=O)N(C)C(C(=O)Nc3ccc(F)cc3F)=C2)c1 | 14.9%
Cc1cccc(C(=O)N/N=C/c2ccoc2)c1 | 12%
CCOc1ccc(NC(=O)[C@@H](NC(=O)OCc2ccccc2)[C@@H](C)CC)cc1 | 13.8%
Cc1ccc(CC(=O)Nc2cc([N+](=O)[O-])ccc2F)cc1 | 12.5%

SMILES | hERG current change (%, negative = inhibition) at 1uM
Cc1ccc[n+](C(C)C(=O)Nc2ccc([N+](=O)[O-])cc2C)c1.[Br-] (stereo not shown) | 12.2%
O=C(NC(=S)NCCC1=CCCCC1)c1cccnc1 | 0.308%
O=C(/C=C/c1ccco1)c1cccnc1 | 12.3%
O=C(CSc1nc(O)c(C2CCCCC2)c(=O)[nH]1)NCC1CCCO1 (stereo not shown) | -2.86%
Cc1ccc(NC(=O)CCOc2ccccc2)cc1 | 9.04%
COc1ccc(Cc2nc(-c3ccc(Cl)cc3)no2)cc1 | 5.91%
COCc1cc(C)nc(OCC(=O)N/N=C/c2ccc(OC)c(O)c2)c1C#N | 16.4%
O=C(NCCCn1ccnc1)c1ccc(COc2ccccc2)o1 | -3.01%
O=C(Cn1cnc2c(nnn2-c2ccc(F)cc2)c1=O)N1CCCC1 | -3.92%
CNC(=O)CSc1nc2c([nH]c3ccccc32)c(=O)n1CCOC | -0.192%
CCCCCCCC(=O)N/N=C/c1ccc(Br)cc1 | 8.31%
Cc1nc(SCc2c(F)cccc2Cl)n[nH]1 | -5.61%
O=C(CCn1nnc2ccccc21)Nc1nnc(Cc2ccc(F)cc2)s1 | 0.377%
CCOC(=O)c1ccc(NC(=O)C2C3CCCCC32)cc1 (stereo not shown) | 9.62%
COc1cccc(N2CC(C(=O)NNC(=O)c3ccc(Cl)cc3)CC2=O)c1 (stereo not shown) | 6.77%
Cn1cnnc1SC(C(=O)Nc1cccc(C(F)(F)F)c1)c1ccccc1 (stereo not shown) | -3.8%
COc1ccc(/C=C2/SC(=S)N(CCCC(=O)Nc3ccc(O)cc3)C2=O)cc1 | -4.97%
CCOC(=O)C1(Cc2cccc(OC)c2)CCN(Cc2cnc(C)s2)CC1 | 11%
